Experimental data published in PubChem BioAssay (NCATS).
The shares of active, inactive and inconclusive entries below differ from those in the screen. For some of these results: No potency is given beside an inconclusive call; the fits are too rough. The source made the active and inactive calls. The call rests on the fitted dose curve; in most records, active means well fitted curve in the direction sought with a large enough effect; inconclusive means small, poorly fitted or top-dose-only effect, or another doubt; inactive means no such curve, though single readings can be large; an effect the other way counts as inactive or inconclusive.

Columns and labels:
[1] = test system: Zika virus NS2B-NS3 protease (linked construct); experiment: Primary screen NINDS Rhodamine qHTS for Zika virus inhibitors (AID 1347160); further: on the % scale 0 is the no-effect control and ±100 the full control effect; nearly all actives have a fitted effect of over 55% in size
Procedure, shortened: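 Enzyme (25 nM, linked NS2B-NS3) was preincubated 15 min with compound in 10 mM Tris-HCl pH 8.0, 0.01% Tween 20. Rhodamine110 substrate (1.5 microM) was then added and fluorescence read at start and after 15 min.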

[2] = NS1 protein of Zika virus - qHTS assay to identify small molecule inhibitors in human HEK 293 cells (AID 1347053); further: potency means the concentration at half of the fitted maximal effect; nearly all actives have a fitted effect of over 55% in size
Procedure, shortened: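 TR-FRET signal from two anti-ZIKV NS1 antibodies quantified NS1 in HEK 293 cells 24 h after MR766 infection at MOI = 0.5; compounds were added 1 h before virus. Uninfected cells and infected cells defined the NS1 normalization range.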

[3] = qHTS of pediatric cancer cell lines to identify multiple opportunities for drug repurposing: Primary screen for Saos-2 cells (AID 1347097); details: Saos-2 viability, CellTiter-Glo ATP luminescence, 48 h; activity change, negative = cytotoxic: at 46 µM (top of the series); further: potency means the concentration at half of the fitted maximal effect; nearly all actives have a fitted effect of over 40% in size
Procedure, shortened: (§1)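 Phenotypic viability qHTS, 48 h compound exposure, CellTiter-Glo luminescence read-out; multi-concentration dosing so that potency and efficacy derive directly from the primary screen's curves.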

[4] = qHTS of pediatric cancer cell lines to identify multiple opportunities for drug repurposing: Primary screen for NB1643 cells (AID 1347099); further: potency means the concentration at half of the fitted maximal effect; nearly all actives have a fitted effect of over 50% in size
Procedure, shortened: as §1

[5] = qHTS of pediatric cancer cell lines to identify multiple opportunities for drug repurposing: Primary screen for MG 63 (6-TG R) cells (AID 1347105); details: MG 63 (6-TG R) viability, CellTiter-Glo, 48 h; activity change, negative = cytotoxic: at 46 µM (top of the series) unless noted; further: potency means the concentration at half of the fitted maximal effect; nearly all actives have a fitted effect of over 50% in size
Procedure, shortened: as §1

[6] = qHTS of pediatric cancer cell lines to identify multiple opportunities for drug repurposing: Primary screen for control Hh wild type fibroblast cells (AID 1347106); further: nearly all actives have a fitted effect of over 55% in size; further: potency means the concentration at half of the fitted maximal effect;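 on activity change, negative = cytotoxic: on the % scale 0 is the no-effect control and ±100 the full control effect; a drop in luminescence marks cytotoxicity and a rise apparent proliferation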
Procedure, shortened: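 Cells (500-1,000/well) in growth media were settled 5 h at 37 degrees C, then given compounds for 48 h. Viability was read as CellTiter-Glo luminescence. Primary runs used MIPE at 11 points (0.78 nM-46 µM) and NPC at 8 points (0.59 nM-46 µM); follow-ups used 11 points.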

[7] = qHTS of pediatric cancer cell lines to identify multiple opportunities for drug repurposing: Confirmatory screen for DAOY cells (AID 1347114); further: potency means the concentration at half of the fitted maximal effect; nearly all actives have a fitted effect of over 65% in size
Procedure, shortened: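 Viability measured as metabolically active cells via CellTiter-Glo luminescence following 48 hours of compound exposure, 11-point dilutions in confirmatory testing. 500-1,000 cells/well plated 5 hours before dosing; controls were DMSO and 2.3 µM bortezomib.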

[8] = Quantitative High-Throughput drug screen in 47 multiple myeloma cell lines against the NCATS MIPE library collection: KMM1_JCRB cell viability assay (AID 1918960); further: potency means the concentration at half of the fitted maximal effect; nearly all actives have a fitted effect of over 30% in size
Procedure, shortened: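 500 cells/well; MIPE 4.0 library pinned in; 48 h, 37 °C, 5% CO2; CellTiter-Glo ATP luminescence. Controls: DMSO = 100% viability, medium only = 0%.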

[9] = Quantitative High-Throughput drug screen in 47 multiple myeloma cell lines against the NCATS MIPE library collection: KMS21BM_JCRB cell viability assay (AID 1918974); details: ATP luminescence, 48 h; viability: at 45.8 µM (top of the series); further: potency means the concentration at half of the fitted maximal effect
Procedure, shortened: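 Relative luminescence from CellTiter-Glo served as the viability signal, referenced to DMSO-treated (100%) and cell-free medium (0%) controls. Treatment lasted 48 hours at 37C with 500 cells per well.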

[10] = Quantitative High-Throughput drug screen in 47 multiple myeloma cell lines against the NCATS MIPE library collection: MOLP8_DSMZ cell viability assay (AID 1918977); details: MOLP8 myeloma viability, CellTiter-Glo ATP luminescence, 48 h; viability (% of control): at 45.8 µM (top of the series); further: potency means the concentration at half of the fitted maximal effect; nearly all actives have a fitted effect of over 45% in size
Procedure, shortened: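 Cells were exposed to library compounds for 48 hours, after which ATP was measured by CellTiter-Glo. Signal was taken as median relative luminescence units.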

MCC-13 = experiment: qHTS assay to identify novel small-molecules to repurpose for Merkel cell carcinoma treatment (AID 1296009); details: MCC and control cell lines, CellTiter-Glo viability, 72 h; series mostly up to 46 µM; further: potency means the concentration at half of the fitted maximal effect; nearly all actives have a fitted effect of over 60% in size
Procedure, shortened: (§2)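 Dose-response viability screen; 72 hr exposure at 37 degree celsius; CellTiter-Glo added, 10 min room temperature, luminescence read; RLUs scaled between no-cell and DMSO wells.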

MKL-1 = experiment: as above; details: MCC and control cell lines, CellTiter-Glo viability, 72 h; activity change, negative = cytotoxicity: at 46 µM (top of the series)
Procedure, shortened: as §2

MKL-2 = experiment: as above; details: MCC and control cell lines, CellTiter-Glo viability, 72 h; activity change, negative = cytotoxicity: at 46 µM (top of the series)
Procedure, shortened: as §2

[11] = qHTS of pediatric cancer cell lines to identify multiple opportunities for drug repurposing: Primary screen for BT-37 cells (AID 1347094); further: potency means the concentration at half of the fitted maximal effect
Procedure, shortened: as §1

[12] = qHTS of pediatric cancer cell lines to identify multiple opportunities for drug repurposing: Primary screen for RD cells (AID 1347104); further: potency means the concentration at half of the fitted maximal effect; nearly all actives have a fitted effect of over 55% in size
Procedure, shortened: as §1

MCC-26 = experiment: qHTS assay to identify novel small-molecules to repurpose for Merkel cell carcinoma treatment (AID 1296009); details: MCC and control cell lines, CellTiter-Glo viability, 72 h; series mostly up to 46 µM; further: potency means the concentration at half of the fitted maximal effect; nearly all actives have a fitted effect of over 60% in size
Procedure, shortened: as §2

[13] = qHTS assay to identify inhibitors of the type 1 interferon - major histocompatibility complex class I in skeletal muscle: Counter screen cell viability and HiBit confirmation (AID 1347412); details: iHSKM muscle cells + IFN-b, HiBiT or CellTiter-Glo, 24 h; further: nearly all actives have a fitted effect of over 60% in size; further: potency means the concentration at half of the fitted maximal effect; on activity change, negative = inhibition: on the % scale 0 is the no-effect control and ±100 the full control effect
Procedure, shortened: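 Myoblasts (C25cl48, HLA-B HiBiT) seeded in medium without dexamethasone, IFN-b 4 ng/ml added except unstimulated columns; 1 hr later compounds pinned (12-pt 1:3, top 46 uM final). Incubated 24 hrs, lysed 10 min, luminescence measured.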

[14] = P-glycoprotein substrates identified in KB-3-1 adenocarcinoma cell line, qHTS therapeutic library screen (AID 1346986); details: KB-3-1 parental cells viability, CellTiter-Glo, 72 h;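 further: potency means the concentration at half of the fitted maximal effect; potency is for cytotoxicity meaning loss of cell viability; nearly all actives have a fitted effect of over 60% in size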
Procedure, shortened: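 In 1536-well format, 500 cells/well received pinned compound titrations and were incubated 72 h, 5% CO2. Viability was read by CellTiter-Glo; cytotoxic if AC50 < 10 uM and efficacy >50%.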

[15] = biological target: Calcium and integrin-binding protein 1 (Homo sapiens) (UniProt Q99828); experiment: Primary qHTS for Identification of Calcium Integrin Binding Protein 1 (CIB1) Competitor (AID 1508620); further: potency means the concentration at half of the fitted maximal effect;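 on activity change, negative = inhibition: GST tagged CIB1 binding a fluorescein labelled alphaIIb integrin peptide tracer; top concentration of the series differs between compounds; on the % scale 0 is the no-effect control and ±100 the full control effect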
UniProt Q99828, sequence (Q99828 whole entry, looked up): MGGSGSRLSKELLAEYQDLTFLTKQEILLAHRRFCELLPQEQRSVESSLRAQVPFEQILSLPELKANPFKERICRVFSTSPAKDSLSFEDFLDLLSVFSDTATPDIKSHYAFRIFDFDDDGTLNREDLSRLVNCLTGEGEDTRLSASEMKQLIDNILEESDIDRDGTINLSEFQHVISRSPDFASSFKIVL
Procedure, shortened: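 Fluorescence polarization competition: GST-tagged CIB1 (1 uM final) preincubated with compound 15 min at room temperature, then FITC-labelled alphaIIb peptide (100 nM final) added. After 15 min at room temperature, polarization read at Ex 480/Em 540.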
Tags describe the fitted curve by direction and shape.

In the case of `Cc1nc(Nc2cnn(C3CCNCC3)c2)nc2c1N(C)C(=O)c1cc3ccccc3cc1N2C`, the Potency [1] is reported as “inactive”.

For `Cc1cnc(Nc2ccc(CN3CCOCC3)cc2)nc1Nc1cccc(S(=O)(=O)NC(C)(C)C)c1`, the Potency [2] was active: 33.2 µM, the Potency [3] was active: 3.72 µM and the Potency [4] was active: 3.72 µM. The Potency [5] was active: 3.72 µM, the Potency [6] was active: 11.8 µM and the Potency [7] was inconclusive [cytotoxic, single point]. For the same molecule, the Potency [8] was inconclusive [cytotoxic, single point], the Potency [9] was inconclusive [cytotoxic, partial curve, poor fit] and the Potency [10] was active: 2.09 µM. The Potency (MCC-13) was active: 13.2 µM, the Potency (MKL-1) was active: 11.8 µM and the Potency (MKL-2) was inconclusive [inhibitor, partial curve].

With `CC[C@]12CCCN3CCc4c(n(c5ccccc45)C(=O)C1)[C@@H]32` the Potency [11] was inconclusive [cytotoxic, partial curve], the Potency [12] was inconclusive [cytotoxic, partial curve] and the Potency [5] was inconclusive [cytotoxic, single point]. For the same molecule, the Potency [6] was “inactive”, the Potency (MCC-26) was inconclusive [inhibitor, single point] and the Potency (MKL-1) was inconclusive [inhibitor, single point]. The Potency (MKL-2) was inconclusive [inhibitor, full curve].

For `CC(C)c1cc(C(=O)N2Cc3ccc(CN4CCN(C)CC4)cc3C2)c(O)cc1O`, the Potency [2] was inconclusive [inhibitor, single point], the Potency [11] was inconclusive [cytotoxic, full curve] and the Potency [3] was active: 0.935 µM. For the same molecule, the Potency [12] was active: 0.209 µM, the Potency [5] was inconclusive [cytotoxic, full curve] and the Potency [6] was inconclusive [cytotoxic, partial curve]. For the same molecule, the Potency [7] was inconclusive [cytotoxic, partial curve], the Potency [9] was inconclusive [rising, partial curve, poor fit] and the Potency [10] was active: 0.148 µM. For the same molecule, the Potency (MCC-26) was inconclusive [inhibitor, full curve], the Potency (MKL-1) was inconclusive [inhibitor, full curve] and the Potency ([13]; HiBiT) was inconclusive [inhibitor, full curve]. The Potency ([13]; Viability) was inconclusive [cytotoxic, full curve].

In the case of `O=C1NC(=O)C(c2cnc3ccccn23)=C1c1cn2c3c(cc(F)cc13)CN(C(=O)N1CCCCC1)CC2`, the Potency [14] is reported as active: 5.8 µM, the Potency ([13]; HiBiT) is reported as inconclusive [inhibitor, partial curve] and the activity change, negative = inhibition ([13]; Viability, at 45.9 µM (top of the series)) is reported as inactive: -0.987%.

For `Cc1cc(N2CCOCC2)ccc1Nc1nc(NC2CCCCC2)c2[nH]cnc2n1`, the Potency [15] was “inactive”.

In the case of `CC(=O)NCC(=O)N1[C@H]2CC[C@H]1c1cc(Nc3ncc(C(F)(F)F)c(NC4CCC4)n3)ccc12`, the Potency [2] is reported as active: 13.2 µM, the Potency [11] is reported as active: 24.3 µM and the Potency [4] is reported as active: 1.18 µM. For the same molecule, the Potency [12] was active: 2.35 µM, the Potency [5] was active: 2.35 µM and the Potency [6] was inconclusive [cytotoxic, full curve]. The Potency [7] was inconclusive [cytotoxic, single point], the Potency [8] was active: 3.72 µM and the Potency [9] was inconclusive [rising, partial curve, poor fit]. For the same molecule, the Potency [10] was active: 2.64 µM, the Potency (MCC-13) was inconclusive [inhibitor, full curve] and the Potency (MCC-26) was active: 3.72 µM. For the same molecule, the Potency (MKL-2) was active: 23.5 µM.

For `CN(C)CCCn1cc(C2=C(c3c[nH]c4ccccc34)C(=O)NC2=O)c2ccccc21`, the Potency [15] was inconclusive [inhibitor, partial curve].

In the case of `C=CCNc1c(O)cc2c(O)c1C[C@@H](C)C[C@H](OC)[C@@H](O)[C@@H](C)C=C(C)[C@H](OC(N)=O)[C@@H](OC)C=CC=C(C)C(=O)N2`, the Potency [5] is reported as inconclusive [cytotoxic, full curve], the Potency [6] is reported as inconclusive [cytotoxic, full curve, poor fit] and the Potency [8] is reported as active: 0.372 µM. The Potency [9] was inconclusive [rising, partial curve, poor fit], the Potency [10] was active: 0.332 µM and the Potency (MCC-26) was inconclusive [inhibitor, full curve]. The Potency (MKL-2) was inconclusive [inhibitor, partial curve, poor fit].
